# In all, about 33,000 sequences were measured (“E-score (-0.5 to 0.5)”: median about -0.035, highest 2% from about 0.34 on). This is one part of the list.
# Biological target: T1, Mot3 (UniProt P54785)
# T1 sequence: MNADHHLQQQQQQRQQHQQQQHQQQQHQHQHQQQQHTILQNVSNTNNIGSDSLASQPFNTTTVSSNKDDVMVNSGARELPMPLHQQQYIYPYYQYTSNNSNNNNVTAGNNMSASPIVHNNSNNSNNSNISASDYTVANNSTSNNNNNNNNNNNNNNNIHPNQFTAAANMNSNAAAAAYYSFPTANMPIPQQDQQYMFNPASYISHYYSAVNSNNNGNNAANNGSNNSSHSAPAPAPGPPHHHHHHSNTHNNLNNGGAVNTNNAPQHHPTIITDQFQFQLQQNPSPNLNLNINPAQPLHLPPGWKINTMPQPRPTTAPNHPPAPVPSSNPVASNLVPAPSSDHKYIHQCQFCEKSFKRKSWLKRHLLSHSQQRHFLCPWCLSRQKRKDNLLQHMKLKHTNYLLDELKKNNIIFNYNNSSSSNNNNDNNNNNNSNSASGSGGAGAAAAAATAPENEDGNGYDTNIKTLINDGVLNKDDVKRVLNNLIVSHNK
# Experiment: PBM E-score (8-mer binding enrichment) (E-score (-0.5 to 0.5)); higher = stronger / more preferred TF binding; most listed sequences are background and not binding sites
# Conditions: protein concentration: 200 nM; construct: GST-full length
# How it was run: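 E-scores (a modified Wilcoxon-Mann-Whitney statistic) were assigned by the Universal PBM Analysis Suite to every ungapped eight-base word pooled with its reverse complement. The input came from universal all-10-mer Agilent arrays made double-stranded by primer extension and probed with GST-tagged yeast transcription factors at about 100-200 nM. Fluorescent anti-GST detected bound protein, and masliner normalised the scans.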
row,Sequence,PBM E-score
1,CGTGTAAG,0.38
2,ACGCTATC,-0.0382
3,AGTAGACG,0.0279
4,AATACTAC,0.155
5,CCTCCGTC,-0.157
6,GAAGTGTA,0.106
7,TGGAGTAA,-0.00595
8,CGAAATCC,-0.0979
9,CCCAGGGA,-0.345
10,CGAGTATA,-0.0712
11,ACATATGC,0.197
12,TCTTGCAA,-0.0197
13,ATATTTTA,0.103
14,CGCTAACA,0.22
15,ACGTTATC,0.0877
16,AGCACTGA,-0.122
17,GCCACCGA,-0.138
18,AGACCGAC,-0.111
19,AACAGCCT,0.0281
20,ATCCTGAC,0.0953
21,CGAATTAA,0.0895
22,AAACGTGC,0.118
23,AGCTTCCG,-0.172
24,CCATGTCG,0.247
25,ATGGCGTC,-0.0713

row,Sequence,PBM E-score
1,ACTTGCGA,-0.11
2,AAGTATAT,0.109
3,CCGGACCA,-0.137
4,ACAAGCCC,0.0399
5,AGGTAAAG,0.269
6,ACTGCGCA,-0.17
7,AATTACTG,0.111
8,ACCCCATC,-0.194
9,CATGGACC,0.0841
10,ACAGTTGA,0.0328
11,ATCCGACC,-0.0318
12,ATCAGTAG,-0.044
13,AGTTTATA,0.0613
14,CCCATAAC,0.0479
15,CCATGTCA,0.287
16,GGCAGCCC,-0.195
17,AGCAAGCG,-0.308
18,CCTTGGAC,-0.161
19,CTTAGTGC,0.0583
20,GGGGACAC,-0.189
21,ACAGGCAT,0.409
22,AGCCGGAG,-0.151
23,AGGATCGA,-0.0463
24,GTATACAC,0.323
25,CCTGAACC,0.206

row,Sequence,PBM E-score
1,AAGCCTAC,0.0015
2,CACCGGGC,-0.309
3,GGGGGTGA,-0.228
4,AACCCACT,-0.119
5,AGGAGGAT,-0.0525
6,CTTGGAAA,0.088
7,ACCAGCCT,-0.27
8,GCTTGTCC,-0.0746
9,CCAGCGAG,-0.181
10,CCCGCTTC,-0.191
11,GTTAAAAA,0.285
12,ATCAATTC,-0.0725
13,GTTGCGCA,-0.0856
14,TGTCCAAA,0.116
15,GTGTCCGA,-0.14
16,AAGACCTT,-0.109
17,ATTCCGTC,-0.135
18,CTGAACAC,0.109
19,AGCCATCC,-0.22
20,GCGTAGGA,0.0588
21,CGCCCAGC,-0.121
22,GAGTACCC,-0.165
23,AGGCCGTC,-0.209
24,CACAGCCA,0.0935
25,AGCTGGGA,-0.224

row,Sequence,PBM E-score
1,ATCCGAGA,-0.269
2,CTACCTGC,0.04
3,CACGACCA,0.0645
4,AGGTATAG,-0.0472
5,GAATGCCA,-0.218
6,AGTAGCGG,-0.355
7,CGAAACGC,-0.117
8,GGCGGGGA,-0.131
9,CCGATCTA,-0.179
10,ACAGTGGT,-0.112
11,ATCCTTTC,0.00982
12,GGCCTAAA,0.0327
13,ACCAGTGG,-0.153
14,ACAGACAG,-0.0028
15,GACGTCGA,0.136
16,ACTGTCGA,-0.165
17,AAATGACC,0.0152
18,AAAACTTT,0.0215
19,AACGGCCA,-0.121
20,CACTGGTC,-0.0768
21,ATATTAAG,0.0832
22,GCAACGCC,0.0245
23,AGTTGCTC,-0.0447
24,CGGTTACC,-0.0387
25,GCGTCAAA,0.131

row,Sequence,PBM E-score
1,ACACGCGT,0.36
2,ATGTGACA,0.176
3,CCCAATCA,-0.114
4,CGTAGGTA,0.285
5,GCCTTGTA,0.354
6,CTATCGCA,-0.112
7,CTGTGCTA,-0.0938
8,AAACTCAC,-0.0147
9,ACGACTGC,-0.0855
10,GAGCCACA,-0.287
11,ATAGATTG,-0.0655
12,CGCCAAAG,-0.208
13,CGAATACC,0.112
14,AGATCCAA,-0.211
15,ATTGATCC,-0.137
16,TAACGTTA,0.162
17,TCGCGCGA,-0.264
18,AGAACTAG,-0.164
19,GGGTCGAA,-0.203
20,CGCAGAAG,-0.155
21,ATACCGGA,-0.101
22,AGGCCGGG,-0.282
23,AGATCTCC,-0.309
24,CAAGTGCG,-0.0614
25,ACAAGAAG,0.062

row,Sequence,PBM E-score
1,ATAAGAGG,-0.0973
2,GTGGCAGA,-0.201
3,ATGTGCCG,-0.259
4,CATCCCGG,-0.192
5,ACCTGTAG,0.146
6,GAACATGA,0.238
7,CCGCTTAC,-0.145
8,CGAAATTA,0.106
9,CATGCCTA,0.245
10,CCCTCGCC,-0.358
11,TTGCCAAA,-0.0722
12,AACCCTGA,0.0568
13,TACAAACA,0.161
14,CCGGCACC,-0.143
15,CTTATGCC,-0.039
16,CACGCGCG,0.0383
17,AACGCCAG,-0.0303
18,ATCGATTG,0.179
19,GCAAGGGC,-0.133
20,CACTTGAC,-0.0617
21,GACTTATC,-0.2
22,AGCTACTA,-0.0666
23,GCCCCGGC,-0.332
24,CGGTCCAC,-0.218
25,GGGCACGA,0.163

row,Sequence,PBM E-score
1,AAGAGCCG,-0.215
2,AATCATCG,-0.125
3,GGGCGACA,-0.194
4,GCCGCGAC,-0.259
5,CATGTTAA,0.411
6,ATCCCGAG,-0.305
7,ATTAGGCC,-0.111
8,GAGGAATA,0.097
9,ACTTTTTG,0.13
10,GTACTACA,0.308
11,ACCAGTCC,-0.224
12,TAGAATGA,0.0169
13,AGTGGAGG,-0.177
14,ATCGGAGG,0.0214
15,ACATGCGG,0.175
16,GCTATGCA,-0.154
17,ATCTACTC,-0.0854
18,CTAGAGCA,-0.00487
19,ATTCTCAC,-0.0526
20,GTACAGGA,0.343
21,ACTGTAAT,0.169
22,ACGCCGTG,0.172
